Data as given in patent US6627771B1, “Gamma amino butyric and acid analogs” (Pfizer Inc, priority 1998, dated 2003).

Molecular target: α2δ subunit derived from porcine brain tissue (Sus scrofa, UniProt A0A287BIN3)
Test: radioligand binding assay using [3H]gabapentin and the α2δ subunit
Conditions: α2δ Assay IC50, [3H]gabapentin

Structure (SMILES)	IC50
NC[C@H](CC(=O)O)C1CCCC1 [4R+, 4(R)-Amino-3-cyclopentyl-butyric Acid]	108 nM
NC[C@@H](CC(=O)O)C1CCCC1 [5S−, (S)-4-Amino-3-cyclopentyl-butyric Acid]	145 nM
NCC(CC(=O)O)C1CCC1 (stereo not shown) [Example 1, 4-Amino-3-cyclobutyl-butyric Acid]	733 nM
NCC(CC(=O)O)C1CCC1 (stereo not shown) [Example 2, 4-Amino-3-cyclobutyl-butyric Acid]	645 nM
NCC(CC(=O)O)C1CCCC1 (stereo not shown) [Example 3, 4-Amino-3-cyclopentyl-butyric Acid]	133 nM
NCC(CC(=O)O)CC1CC1 (stereo not shown) [Example 6]	626 nM
NCC(CC(=O)O)CC1CCC1 (stereo not shown) [Example 7]	317 nM
NCC(CC(=O)O)CC1CCCC1 (stereo not shown) [Example 8]	3180 nM
NCC(CC(=O)O)CC1CCCCC1 (stereo not shown) [Example 9]	4870 nM
CC(CN)(CC(=O)O)C1CC1 (stereo not shown) [Example 10]	~10000 nM
CC(CN)(CC(=O)O)C1CCC1 (stereo not shown) [Example 11]	> 10000 nM
CC(CN)(CC(=O)O)CC1CCC1 (stereo not shown) [Example 12]	800 nM
CC(CN)(CC(=O)O)CC1CCCC1 (stereo not shown) [Example 13]	> 10000 nM
